According to US20240141042A1 (INNATE PHARMA, published 2024):

What was measured:
human FcRn (Example 10) = biological target: T1, human FcRn (Example 10) (human, UniProt P55899 fragment; P61769 fragment, limits assumed); experiment: SPR, FcRn immobilized on CM5, Steady State
T1 construct: Construct not described; Beta-2-microglobulin is not mentioned; also called recombinant FcRn proteins

[1] = biological target: T2, Human NKp46 recombinant proteins (human, UniProt O76036 22-258); experiment: SPR, bispecific captured on Protein-A chip, human NKp46 injected, 1:1 kinetic model
T2 construct: also called recombinant human NKp46 proteins
T2 sequence: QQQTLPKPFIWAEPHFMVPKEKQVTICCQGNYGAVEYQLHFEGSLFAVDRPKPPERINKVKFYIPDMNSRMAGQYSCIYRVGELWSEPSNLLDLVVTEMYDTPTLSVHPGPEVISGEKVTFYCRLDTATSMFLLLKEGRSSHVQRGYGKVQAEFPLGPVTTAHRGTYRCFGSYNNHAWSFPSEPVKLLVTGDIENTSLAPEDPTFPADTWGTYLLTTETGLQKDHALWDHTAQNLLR
Protocol: SPR measurements were performed on a Biacore T100 apparatus (Biacore GE Healthcare) at 25° C. In all Biacore experiments HBS-EP+(Biacore GE Healthcare) and NaOH 10 mM served as running buffer and regeneration buffer respectively. Sensorgrams were analyzed with Biacore T100 Evaluation software. Protein-A was purchase from (GE Healthcare). Human NKp46 recombinant proteins were cloned, produced and purified at Innate Pharma.
Protein-A proteins were immobilized covalently to carboxyl groups in the dextran layer on a Sensor Chip CM5. The chip surface was activated with EDC/NHS (N-ethyl-N′-(3-dimethylaminopropyl) carbodiimidehydrochloride and N-hydroxysuccinimide (Biacore GE Healthcare)). Protein-A was diluted to 10 μg/ml in coupling buffer (10 mM acetate, pH 5.6) and injected until the appropriate immobilization level was reached (i.e. 2000 RU). Deactivation of the remaining activated groups was performed using 100 mM ethanolamine pH 8 (Biacore GE Healthcare).
Monovalent affinity study was done following a regular Capture-Kinetic protocol recommended by the manufacturer (Biacore GE Healthcare kinetic wizard). Seven serial dilutions of human NKp46 recombinant proteins, ranging from 6.25 to 400 nM were sequentially injected over the captured Bi-Specific antibodies and allowed to dissociate for 10 min before regeneration. The entire sensorgram sets were fitted using the 1:1 kinetic binding model.

human FcRn (Example 10), sequence (P55899 24-297 limits assumed, form in doubt, chain 1 of 2): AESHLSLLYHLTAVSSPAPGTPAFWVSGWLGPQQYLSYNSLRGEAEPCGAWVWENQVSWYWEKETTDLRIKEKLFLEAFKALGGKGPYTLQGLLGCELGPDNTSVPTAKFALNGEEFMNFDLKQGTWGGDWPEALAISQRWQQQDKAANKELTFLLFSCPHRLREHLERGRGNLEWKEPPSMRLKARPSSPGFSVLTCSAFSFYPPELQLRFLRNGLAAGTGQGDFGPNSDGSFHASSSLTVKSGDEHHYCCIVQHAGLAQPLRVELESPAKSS
human FcRn (Example 10), sequence (P61769 21-119 limits assumed, form in doubt, chain 2 of 2, further chain): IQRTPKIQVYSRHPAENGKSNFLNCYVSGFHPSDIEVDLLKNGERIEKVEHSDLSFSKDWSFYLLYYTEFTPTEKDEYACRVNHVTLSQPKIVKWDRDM

B1: CD19-F3-NKp46-3 (bispecific antibody)
chain: DIQLTQSPASLAVSLGQRATISCKASQSVDYDGDSYLNWYQQIPGQPPKLLIYDASNLVSGIPPRFSGSGSGTDFTLNIHPVEKVDAATYHCQQSTEDPWTFGGGTKLEIKGGGGSGGGGSGGGGSQVQLQQSGAELVRPGSSVKISCKASGYAFSSYWMNWVKQRPGQGLEWIGQIWPGDGDTNYNGKFKGKATLTADESSSTAYMQLSSLASEDSAVYFCARRETTTVGRYYYAMDYWGQGTTVTVSSGGGSS[sequence of human IgG1 Fc not given]GGGGSGGGGSGGGGSGQPREPQVYTLPPSREEMTKNQVSLTCLVKGFYPSDIAVEWESNGQPENNYKTTPPVLDSDGSFFLYSKLTVDKSRWQQGNVFSCSVMHEALHNHYTQKSLSLSPGSTGSEVQLQQSGPELVKPGASVKISCKTSGYTFTEYTMHWVKQSHGKSLEWIGGISPNIGGTSYNQKFKGKATLTVDKSSSTAYMELRSLTSEDSAVYYCARRGGSFDYWGQGTTLTVSSVEGGSGGSGGSGGSGGVDDIVMTQSPATLSVTPGDRVSLSCRASQSISDYLHWYQQKSHESPRLLIKYASQSISGIPSRFSGSGSGSDFTLSINSVEPEDVGVYYCQNGHSFPLTFGAGTKLELK
notes: Single chain with tandem CH3
**Q.** Which Kd (human FcRn (Example 10)) does the source give for B1 here?
**A.** The Kd was 474 nM.

**Q.** And the Kd [1]?
**A.** The Kd was 28 nM.

**Q.** And the koff [1]?
**A.** The koff was 0.0112 s⁻¹.

**Q.** And the kon [1]?
**A.** The kon was 390000 M⁻¹ s⁻¹.
